Source: PubChem BioAssay AID1508642 (National Center for Advancing Translational Sciences (NCATS), 2021)
Among all 43,000 compounds or so, about 200 (0.47%) were called active. Inconclusive results (about 12%) are left out. Calls follow the shape of the dose curve; as a rule, active = well fitted cell-killing curve with a large enough effect; inconclusive = small, poorly fitted or top-dose-only effect, or effect the other way; inactive = flat fitted curve, though single readings scatter. The list shows a part of the results.

experiment: Cell viability qHTS assay in S16 Pmp22-F2sN cells; conditions: S16 Pmp22-F2sN Schwann cells viability, CellTiter-Glo, 24 h; series mostly up to 57.5 µM; activity change, negative = cytotoxicity: at the top concentration; also: nearly all actives have a fitted effect of over 65% in size
Method in brief: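 Viability was measured by CellTiter-Glo luminescence (15 min, room temperature). This followed 24 h at 37 °C of compound exposure (23 nL pin transfer) in S16 Pmp22-F2sN Schwann cells, 500-1,000 per well.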
% is scaled to controls: 0 for no effect and ±100 for the full control effect.

Structure (SMILES)	activity change, negative = cytotoxicity
O=C(CSc1nc(-c2ccccc2F)nc2cc(=O)[nH]n12)Nc1cccc(C(F)(F)F)c1	inactive: -20.8%
CCOc1ccccc1-c1nc(Cn2c(=O)cc(C)c3c(C)nn(-c4ccccc4)c32)c(C)o1	inactive: 3.51%
Cc1cc(C)cc(NC(=O)C2CCCN2S(=O)(=O)c2ccc3nc(-c4ccccc4)[nH]c3c2)c1 (stereo not drawn)	inactive: -11.7%
Cc1ccc(OCC(=O)Nc2ccc(S(=O)(=O)Nc3cc(C)on3)cc2)c(Br)c1	inactive: -13.8%
COC(=O)c1sc(-c2ccccc2)cc1NC(=O)Nc1ccc(F)cc1	inactive: -8.95%
COc1ccc(C(CC(=O)NCc2ccc(Cl)cc2)N2Cc3ccccc3C2=O)cc1OC (stereo not drawn)	inactive: -6.75%
O=C(NCCn1cc(SCc2ccc(Br)cc2)c2ccccc21)c1cccs1	inactive: 2.42%
COc1ccc(CCNC(=O)C2CCN(Cc3nc(-c4ccc(OC)c(OC)c4)oc3C)CC2)cc1OC	inactive: 18.4%
Cc1ccc(/C=C(\C#N)C(=O)Nc2cccc(Cl)c2)o1	inactive: -2.85%
CCN(CC)C(=O)Cn1c(=O)n(CC2CCC(C(=O)NC)CC2)c(=O)c2sccc21 (stereo not drawn)	inactive: -10.9%
CCC1Oc2ccccc2N(CC(=O)NCc2cc(OC)ccc2OC)C1=O (stereo not drawn)	inactive: -5.1%
CCCC(=O)N1CCc2cc(OC)c(OC)cc2C1COc1ccc(C(=O)OC)cc1 (stereo not drawn)	inactive: -2.91%
CCOc1ccc(CCNC(=O)CCCc2nnc3n(CC)c(=O)c4sccc4n23)cc1	inactive: -4.31%
CCSc1ncc(Cl)c(C(=O)Nc2c(C(=O)Nc3ccccc3)oc3ccccc23)n1	inactive: -6.85%
Cn1c(SCC(=O)Nc2nc3ccccc3s2)ncc(C(=O)Nc2ccccc2)c1=O	inactive: 1.27%
CCc1nc(-c2cc(S(=O)(=O)N3CCN(c4ccccc4)CC3)ccc2OC)no1	inactive: 13.7%
COc1cccc(CNC(=O)CN2C(=O)N(c3ccc(C)cc3C)S(=O)(=O)c3ccccc32)c1OC	inactive: -2.72%
CCc1nn(CC(=O)NCCCN(CC)CC)c(=O)c2cc3occc3n12	inactive: 6.11%
Cc1ccc2onc(CNC(=O)NCc3ccc(Cl)cc3)c2c1	inactive: -9.21%
O=C1COc2cc(S(=O)(=O)CCC(=O)NC3CCCCC3)c(Cl)cc2N1	inactive: 1.56%
COc1ccc(C)cc1-n1cnc2cc(C(=O)NC3CCCCCC3)ccc21	inactive: -1.08%
Cn1c(=O)c2c(-c3ccc(Br)cc3)n(Cc3ccc(F)cc3)cc2n(C)c1=O	inactive: -14.2%
COc1cccc(C(=O)Nc2cccc(-c3nc4ncccn4c3C)c2)c1	inactive: -11.5%
O=C(O)c1c(-c2ccccc2)oc2ccc(OCc3c(F)cccc3Cl)cc12	inactive: 4.32%

Structure (SMILES)	activity change, negative = cytotoxicity
Cc1ccn2c(=O)cc(COc3ccc(NC(=O)COc4ccc(C)c(C)c4)cc3)nc2c1	inactive: 2.73%
Cc1ccc(OCC(=O)NCC(c2ccc(Cl)cc2)N2CCOCC2)cc1C (stereo not drawn)	inactive: 1.83%
CCOc1cc(C2c3c(oc4ccccc4c3=O)C(=O)N2Cc2ccc(OC)cc2)ccc1O (stereo not drawn)	inactive: 0.566%
COc1ccc(C)cc1NC(=O)c1cnc2ccc(C)cn2c1=O	inactive: -0.289%
O=c1c2ccccc2n(Cc2c(F)cccc2Cl)c(=O)n1CCc1ccccc1	inactive: 18.6%
Cc1ccc(C(=O)c2oc3ccccc3c2NC(=O)Cc2coc3ccc(C)cc23)cc1	inactive: -0.362%
CCOC(=O)c1c(C)[nH]c(C)c1S(=O)(=O)N(C)CC(=O)NCc1ccc(Cl)cc1	inactive: -29.6%
COc1ccc(-n2cnc3cc(C(=O)NC4CCCCCC4)ccc32)cc1	inactive: -2.81%
O=C(O)c1ccc2nc(-c3cc4cc(Cl)ccc4oc3=O)[nH]c2c1	inactive: 3.58%
Cc1ccc(-c2nc3c4ccccc4n(CC(=O)NCc4ccc(F)cc4)c(=O)n3n2)cc1	inactive: 1.81%
O=C(CCCCn1c(=O)c2ccccc2n(Cc2cccc(F)c2)c1=O)NCc1ccc2c(c1)OCO2	inactive: 12.5%
Cc1cccc(Nc2c(-c3ccsc3)nc3nc(C)cc(C)n23)c1	inactive: 0.0996%
Cc1ccc(-n2c(=O)c3c(cnn3C)n(Cc3ccc(Cl)cc3)c2=O)cc1	inactive: -20.9%
Cc1cccc(NC(=O)c2oc3ccccc3c2NC(=O)c2cc(=O)c3ccc(C)cc3o2)c1	inactive: 13.9%
Cc1cc(NC(=O)CCc2nc3cccnc3n2Cc2cccs2)ccc1Br	inactive: -34.4%
CCOc1ccc2nc(N3CCCC(C(=O)Nc4cc(C)ccc4C)C3)sc2c1 (stereo not drawn)	inactive: 14.5%
Cc1ccc(NC(=O)Nc2c[nH]c(=O)[nH]c2=O)c(Cl)c1	inactive: -3.07%
CCc1ccccc1NC(=O)CSc1nnc(-c2ccc(OC)cc2)s1	inactive: 2.29%
CC(=O)Nc1ccc(NC(=O)C2CCN(S(=O)(=O)c3ccc4c(c3)CCCC(=O)N4)CC2)cc1	inactive: 18.6%
Cc1ccc(NS(=O)(=O)c2cc(-c3cc(C)no3)ccc2C)c(Cl)c1	inactive: 1.87%
CCOc1ccc(CNC(=O)c2ccc3[nH]c(C)c(C)c3c2)cc1OC	inactive: 15.3%
CCc1ccc(NC(=O)N(Cc2c[nH]c3ccccc23)C2CCCCC2)cc1	inactive: 26.2%
CCOc1cc(C(=O)Nc2ccc(NC(=O)c3cc4ccccc4o3)c(OC)c2)cc(OCC)c1OCC	inactive: -6.3%
Cc1ccc2c(c1)c1c(c(=O)n(-c3ccccc3C)c(=O)n1CC(=O)c1ccc(Cl)cc1)n2C	inactive: -1.72%
